# Assay results: PubChem BioAssay (NCATS)
# Some of the results follow. Further columns of the screen follow, without active or inactive calls. For part of these data: The list favours compounds with an active or inconclusive main result. Potencies come from curve fits of mixed quality, noted in brackets.
# Tests used:
# [1] = qHTS drug screen for cell cycle checkpoint inhibitors in PARPi-resistant BRCA-mutant ovarian cancer cell lines. (AID 1963452); details: PEO1/OlaR viability, CellTiter-Glo luminescence, 96 h
# Summary of the method: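 PEO1, PEO4 and PEO1/OlaR ovarian cancer cells, 600 per well, exposed 96 h at 37C to a dilution series. Viability read by CellTiter-Glo luminescence, normalized to DMSO and empty wells; activity summarized as Z-AUC.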
# [2] = qHTS for identification of novel therapeutic agents for treatment of microphthalmiaassociated transcription factor (MiT) renal cell carcinoma (RCC) (AID 1963991); details: CellTiter-Glo, 48 h; for z-score: stronger effect = lower value
# Summary of the method: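 Viability of three TFE3-fusion renal carcinoma lines measured by CellTiter-Glo after 48 h treatment with each of 1912 compounds at 11 concentrations. Responses scaled between DMSO (100%) and empty wells (0%) before curve fitting.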
# [3] = measured here: PEO1 parental viability
# [4] = TFE3-RCC UOK109 viability, measured here: UOK109 Z-AUC
# [5] = TFE3-RCC viability, measured here: UOK124 Z-AUC
# [6] = TFE3-RCC viability, measured here: UOK145 Z-AUC
# [7] = TFE3-RCC viability, measured here: UOK145 cell viability
# [8] = TFE3-RCC viability, measured here: UOK124 cell viability
# Tags tell the direction and shape of the fitted curve.
Compound,"AC50 [1, 3]",AC50 ([1]; measured here: PEO4 viability),"z-score [2, 4]","z-score [2, 5]","z-score [2, 6]","AC50 [2, 7]","AC50 [2, 8]"
COc1cc(Oc2ccnc3cc(OC)c(OC)cc23)ccc1NC(=O)NC(C)c1nccs1 (stereo not given),"12.3 µM [falling, single point]","7.76 µM [falling, partial curve, poor fit]",0.975,-1.87,0.714,"26.4 µM [falling, single point]",
CN1c2ccccc2C(=O)N2CCc3c([nH]c4ccccc34)C21 (stereo not given),"1.23 µM [falling, full curve]","1.23 µM [falling, full curve]",1.03,0.602,0.594,,
O=c1cc(-c2cccc3c2Sc2ccccc2S3)oc(N2CCOCC2)c1,"24.5 µM [falling, single point]","27.5 µM [falling, single point]",0.302,-0.174,0.485,,
CN(C)C(=O)c1ccc(S(=O)(=O)c2ccc(NC(=O)[C@@](C)(O)C(F)(F)F)c(Cl)c2)cc1,"2.75 µM [falling, full curve]","17.4 µM [falling, partial curve]",-0.0315,-0.852,0.701,,"0.0935 µM [falling, partial curve, poor fit]"
O=C(Nc1cccc(Cl)c1)Nc1ncc(CCNc2ncnc3ccsc23)s1,"12.3 µM [falling, partial curve]","24.5 µM [falling, single point]",0.82,-0.809,0.46,"14.8 µM [falling, partial curve]",
O=[N+]([O-])c1ccc(Nc2ccccc2-c2ccccc2)c2nonc12,"11 µM [falling, partial curve, poor fit]","13.8 µM [falling, partial curve, poor fit]",-0.0102,-0.956,-1.11,"16.6 µM [falling, partial curve, poor fit]",
Nc1nc(=O)n([C@H]2C[C@H](O)[C@@H](CO)O2)cc1F,"0.155 µM [falling, full curve]","1.74 µM [falling, partial curve]",0.154,-2.53,-0.675,"0.526 µM [falling, full curve]",
CCOC(=O)c1c(CSc2ccccc2)n(C)c2cc(Br)c(O)c(CN(C)C)c12,"24.5 µM [falling, single point]","24.5 µM [falling, single point]",0.726,0.34,-0.267,,"20.9 µM [falling, partial curve]"
CCc1nc(-c2cccc(C)c2)c(-c2ccnc(NC(=O)c3ccccc3)c2)s1,"13.8 µM [falling, single point]","24.5 µM [falling, single point]",-0.359,0.262,-0.0097,"20.9 µM [falling, single point]",
Cc1ccc(C2=Nc3ccc(Cl)cc3OC2)cc1,"11 µM [falling, partial curve]","13.8 µM [falling, single point]",0.85,0.186,0.756,,
CCc1cc(Nc2nccc(-c3c(-c4ccc(OC)c(C(=O)Nc5c(F)cccc5F)c4)nc4ccccn34)n2)c(OC)cc1N1CCC(N2CCN(S(C)(=O)=O)CC2)CC1,"7.76 µM [falling, partial curve]","6.16 µM [falling, partial curve]",-0.64,0.271,0.49,,"37.2 µM [falling, partial curve, poor fit]"
CC(C)(Cc1ccc2ccccc2c1)NC[C@@H](O)COc1cccc(Cl)c1C#N,"17.4 µM [falling, single point]","17.4 µM [falling, partial curve]",0.848,0.912,0.58,,
CC(O)(C#Cc1ccc2c(c1)N(c1nc(N)ncc1Cl)CC2)c1nccs1 (stereo not given),"21.9 µM [falling, partial curve, poor fit]","15.5 µM [falling, single point]",-0.0442,0.838,-0.778,"10.5 µM [falling, partial curve]",
CCn1c(-c2nonc2N)nc2cnc(Oc3cccc(NC(=O)c4ccc(OCCN5CCOCC5)cc4)c3)cc21,"2.75 µM [falling, full curve, poor fit]","6.16 µM [falling, partial curve, poor fit]",0.804,0.0485,0.368,"14.8 µM [falling, partial curve]",
CN(C)c1ccc(-c2nc3ncc(Cl)c(N4CCN(CC(=O)Nc5nccs5)CC4)c3[nH]2)cc1,"12 µM [falling, single point]","8.48 µM [falling, partial curve, poor fit]",-0.516,-0.479,0.855,,"2.64 µM [falling, partial curve]"
COc1cccc([C@@H](C)NCCCc2ccccc2Cl)c1,"27.5 µM [falling, single point]","17.4 µM [falling, partial curve]",0.67,0.195,0.403,,
Cc1cc(C(C)Nc2ccccc2)c2nc(N3CCOCC3)cc(=O)n2c1 (stereo not given),"27.5 µM [falling, single point]","27.5 µM [falling, partial curve, poor fit]",-2.09,-0.684,0.222,"8.33 µM [falling, partial curve]",
CC1(C)CNc2cc(NC(=O)c3cccnc3NCc3ccncc3)ccc21,"19.5 µM [falling, partial curve]","15.5 µM [falling, single point]",0.352,0.46,0.314,"20.9 µM [falling, partial curve]",
CCOc1ccn(-c2ccc(F)cc2)c(=O)c1C(=O)Nc1ccc(Oc2ccnc(N)c2Cl)c(F)c1,"6.16 µM [falling, partial curve, poor fit]","11 µM [falling, partial curve]",0.0574,-0.0105,0.582,"26.4 µM [falling, single point]",
O=C(Nc1cccc(C(F)(F)F)c1)Nc1cc(S(=O)(=O)NC2CC2)ccc1-c1ccsc1,"27.5 µM [falling, single point]","15.5 µM [falling, single point]",0.711,0.212,0.712,,"37.2 µM [falling, single point]"
O[C@@H](COc1cccc2ncccc12)CN1CCN(C2c3ccccc3[C@@H]3[C@H](c4ccccc42)C3(F)F)CC1 (stereo not given in full),"19.5 µM [falling, partial curve]","13.8 µM [falling, partial curve]",0.455,-0.103,-0.195,,
Nc1ncnc2c1nc(Cl)n2[C@@H]1O[C@H](CO)[C@@H](O)[C@@H]1O,"13.8 µM [falling, partial curve]","5.49 µM [falling, full curve]",0.358,0.474,0.372,"26.4 µM [falling, single point]",
COc1ccc2c(Oc3ccc(NC(=O)c4c(C)n(CC(C)(C)O)n(-c5ccccc5)c4=O)nc3)ccnc2c1,"21.9 µM [falling, single point]","6.16 µM [falling, partial curve, poor fit]",-0.161,-1.3,-0.865,"33.2 µM [falling, single point]",
NC(=O)c1ccc(-c2nc(-c3ccc4c(c3)OCCO4)c(-c3ccccn3)[nH]2)cc1,"17.4 µM [falling, single point]","24.5 µM [falling, single point]",0.839,0.293,0.624,"18.7 µM [falling, partial curve, poor fit]",
CCN1CCN(Cc2ccc(-c3cc4c(N[C@H](C)c5ccccc5)ncnc4[nH]3)cc2)CC1,"17.4 µM [falling, single point]","19.5 µM [falling, partial curve]",-3.32,-0.592,-1.68,"0.0833 µM [falling, partial curve, poor fit]","16.6 µM [falling, partial curve]"
O=C(Nc1cccnc1)N1CCC(Cc2cccc(Oc3ccc(C(F)(F)F)cn3)c2)CC1,"2.19 µM [falling, full curve]","6.92 µM [falling, partial curve]",0.333,-0.102,0.605,"20.9 µM [falling, partial curve, poor fit]","14.8 µM [falling, partial curve, poor fit]"
CC[C@H](CC#N)OC(=O)N[C@@H](C)c1cccc(NC(=O)Nc2ccc(-c3cnco3)c(OC)c2)c1,"0.871 µM [falling, full curve]","1.38 µM [falling, full curve, poor fit]",0.0278,0.185,-0.449,"0.418 µM [falling, full curve]",
COc1cc(Nc2ncc3c(n2)-c2ccc(Cl)cc2C(c2c(F)cccc2OC)=NC3)ccc1C(=O)O,"7.76 µM [falling, partial curve]","0.0174 µM [falling, full curve, poor fit]",-0.08,-0.391,-0.209,"26.4 µM [falling, partial curve, poor fit]","4.18 µM [falling, partial curve, poor fit]"
